Publication PMC12040169 (PLOS Biology, 2025)
Like-named read-outs stand apart in the source and are kept apart here. The list shows a part of the results.

Tested on: T1, C. trachomatis L2/434/Bu expressing GFP (CTL2-GFP)
T1 construct: L2/434/Bu GFP intracellular growth in HeLa cells
Design: species or system HeLa; C. trachomatis total inclusion area by high-content imaging, normalised to DMSO
How it was run: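 Imaging read-out: GFP inclusions and Hoechst nuclei captured by high-content imaging after fixation. Inclusion area/number = chlamydial growth; nuclei count = host cell viability. MIC calculated per earlier method.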

[1] = total inclusion area; 28.5 h, 10 µM; inhibitor

| SMILES | % of control remaining [1] | % of control remaining (total inclusion area, 28.5 h, 10 µM, inhibitor) |
| --- | --- | --- |
| COc1cc(CNC(=O)c2ccc3[nH]ccc3c2)cc(OC)c1OC [CBK149073] | 82.5812 |  |
| CC(Oc1ccc(F)cc1)C(=O)N1CCCc2c(cnn2C)C1 (stereo not drawn) [CBK285230] | 91.3887 |  |
| COC(=O)Cn1nnc(-c2ccc(C)cc2)n1 [CBK068195] |  | 93.3691 |
| CC1CCN(S(=O)(=O)c2cccs2)CC1 [CBK102093] | 113.667 |  |
| COc1cccc(C(=O)Nc2nc3ccc(F)cc3s2)c1 [CBK287342] | 95.7793 |  |
| COc1ccc(CN2CCCN(c3ccnc(OCCN4CCOCC4)n3)CC2)cc1 [CBK083800] | 56.6146 |  |
| COc1ccc([C@@]23CCC(NC(=O)Nc4cc(C(F)(F)F)ccc4F)C[C@@H]2N(C)CC3)cc1OC (stereo partly drawn) [CBK047552T] | 90.7954 |  |
| COc1ccc(OCC(=O)Nc2ccc(C(=O)O)c(Cl)c2)cc1 [CBK287108] | 93.4759 |  |
| CC(CNS(=O)(=O)c1cc(Cl)ccc1Cl)CN(C)C (stereo not drawn) [CBK266808] | 87.535 |  |
| CC(C)n1c(SCC(=O)Nc2nc(C(C)(C)C)cs2)nc2c1c(=O)n(C)c(=O)n2C [CBK127417] | 79.5235 |  |
| COc1ccc(-c2cc(C(F)(F)F)nc(S(=O)(=O)CCC(=O)Nc3ccc(C)cc3)n2)cc1 [CBK266235] | 123.773 |  |
| CCN(CC)S(=O)(=O)c1ccc(OC)c(NC(=O)C2c3ccccc3Oc3ccccc32)c1 [CBK264774] | 114.261 |  |
| CSCCOc1cc(N2CCCC2)ncn1 [CBK115900] | 93.3134 |  |
| O=C(CSc1ncnc2c1oc1ccccc12)Nc1ccccc1 [CBK057994] | 106.575 |  |
| CSc1nc(NC(=O)c2ccccc2)cc(N2CCNCC2)n1 [CBK050266T] | 94.8862 |  |
| CCC1(CC)OC(NC(C)c2ccccc2F)=NC1=O (stereo not drawn) [CBK132018] | 56.981 |  |
| Cn1nc(-c2ccc(S(=O)(=O)Nc3nnn[nH]3)s2)cc1C(F)(F)F [CBK062390] | 114.465 |  |
| COc1ccc2c(CC(=O)Nc3sccc3C(N)=O)coc2c1 [CBK295137] | 113.002 |  |
| CCOC(=O)Cc1nnc(-c2cccc(C(F)(F)F)c2)[nH]1 [CBK304385] | 56.8192 |  |
| CCCn1nc(C)c(-c2cncn2CC(C)n2nc(C)cc2C)c1C (stereo not drawn) [CBK281793] | 100.444 |  |
| Cc1n[nH]c(C)c1CCC(=O)N/N=C/c1ccc(Cl)cc1Cl [CBK262901] | 102.712 |  |
| COc1cccc(NC(=O)C2C(C(=O)O)C3C=CC2C32CC2)c1 (stereo not drawn) [CBK287106] | 107.017 |  |
| COc1ccc(NS(=O)(=O)c2c(Cl)cccc2Cl)c(C(=O)NCc2ccccc2)c1 [CBK113952] | 88.1172 |  |
| COCCNC(=O)c1cc(-c2ccccc2C)nc2c1cnn2C(C)C [CBK305392] | 30.7352 |  |
| Cc1ccc(CN(Cc2ccco2)CC(O)COCc2ccco2)s1 (stereo not drawn) [CBK304610] | 53.8074 |  |
| CN(Cc1cccc(C(F)(F)F)c1)C(=O)c1cn(CC2CCCO2)nn1 (stereo not drawn) [CBK304360] | 41.8497 |  |

| SMILES | % of control remaining [1] | % of control remaining (total inclusion area, 28.5 h, 10 µM, inhibitor) |
| --- | --- | --- |
| Cc1cc(OC(C)C(=O)Nc2ccc(S(=O)(=O)Nc3onc(C)c3C)cc2)cc(C)c1Cl (stereo not drawn) [CBK267887] | 98.2073 |  |
| Cc1noc(C)c1S(N)(=O)=O [CBK022939] | 47.5137 |  |
| CN(C)Cc1c(O)ccc2occ(C(=O)c3ccccc3)c12 [CBK261965] | 101.635 |  |
| O=c1[nH]c(=O)c2cc(S(=O)(=O)N3CCC(c4ccccc4)C3)ccc2[nH]1 (stereo not drawn) [CBK286382] | 80.8195 |  |
| CCOc1ccccc1-c1noc(CSc2nnc(-c3ccncc3)n2-c2cccc(C)c2)n1 [CBK269076] | 86.2312 |  |
| COc1ccccc1C(=O)Nc1ccc2nc(SCC(=O)NC3CC3)sc2c1 [CBK070791] | 98.9411 |  |
| CCc1ccc2c(c1)C(CCNC(=O)c1ncccc1F)C(=O)N2 (stereo not drawn) [CBK304727] | 71.2074 |  |
| CC(=O)Nc1ccc(-c2cncc(NCCCO)n2)cc1 [CBK065598] | 84.7549 |  |
| COc1cc(C(=O)N2CCC3(CC2)CC(=O)c2cc(C)ccc2O3)cc(-c2ccc(OC)c(OC)c2)c1 [CBK168271] | 126.491 |  |
| Cc1nc(=O)c(-c2ccccc2)c(C)n1-c1ccc(OCC(=O)O)cc1 [CBK286615] | 104.889 |  |
| Cn1c(=O)c2c(ncn2CC(=O)Nc2ccc(Cl)cc2Cl)n(C)c1=O [CBK133227] | 95.1508 |  |
| Cc1nc(-c2ccco2)nc2sc(C(=O)NCc3nnc4ccccn34)c(C)c12 [CBK297773] | 110.966 |  |
| CCOC(=O)C(C)N1C(=O)S/C(=C/c2ccc(Oc3ccc([N+](=O)[O-])cn3)cc2)C1=O (stereo not drawn) [CBK265114] | 133.808 |  |
| CCN1CCN(C(=O)CCNC(=O)c2cccc(OC)c2)CC1 [CBK307580] | 93.3922 |  |
| Cc1ccc(COCSc2nc3ccccc3n2CC(O)CO)cc1C (stereo not drawn) [CBK021195] | 74.7647 |  |
| CC(=O)OC(C(=O)N1CCCCCC1)c1ccc(Br)cc1 (stereo not drawn) [CBK007027] | 76.8086 |  |
| CC(C)NC(=O)Cn1nc(-c2cc3c(s2)CCC3)oc1=O [CBK283801] | 104.353 |  |
| Cc1cc(OC(C)C(=O)N(Cc2cccs2)C2CCS(=O)(=O)C2)cc(C)c1Cl (stereo not drawn) [CBK293962] | 105.998 |  |
| COc1nc(-c2ccc(N(C)C)nc2)nn1C [CBK307317] | 44.6521 |  |
| Cc1nc(SCc2cccc(C(=O)O)c2)nc2c1CCCC2 [CBK266997] | 95.3959 |  |
| O=C(Nc1ccccc1-c1nc2ccccc2s1)c1cc(Br)ccc1Cl [CBK266280] | 148.685 |  |
| O=C(Cn1cnc2ccc([N+](=O)[O-])cc2c1=O)Nc1ccc(C(=O)O)cc1 [CBK297542] | 112.715 |  |
| CCN(Cc1ccncc1)C(=O)Nc1ccc(N(CC)CC)cc1 [CBK155141] | 92.4703 |  |
| O=c1c(N2CCNCC2)nccn1CCc1cccs1 [CBK050382T] | 71.3946 |  |
| Oc1ccc(CCNc2ncnc3[nH]cnc23)cc1 [CBK017724C] | 86.4963 |  |
